In all, about 150,000 compounds went through this assay and about 540 (0.36%) showed an effect of 50% or more. This is one part of the list.
Tested on: Plasmodium falciparum
Assay: Primary screen in NF54 nanoGlo assay, in single point, at 2uM, 72h; a lower Z score goes with more inhibition
Type: functional, Erythrocyte
Settings: timepoint 72 hour

Compound	% Inhibition	Z score
CCCNC(=O)[C@@H]1COC2(CCN(C(=O)c3ccc(OC)cc3)CC2)N1C(=O)c1ccccc1	-11%	1.65
CC(C)(C)OC(=O)N1CCC[C@@H]1CNC1CC1	-7%	0.86
O=C(NCc1ccc2c(c1)OCO2)c1nc[nH]c1C(=O)NCc1ccccn1	6%	-0.77
Cc1nc(CN2C(=O)[C@@H]3CCCCN3C2=O)cs1	-4%	0.48
COCCC1(NC(=O)c2ccc(OC)cc2)CCN(CC2CC2)CC1	-7%	0.82
Cc1cccc(CCNCc2cnc3cccc(C)n23)n1	-6%	1.09
CCc1ocnc1C(=O)NC1CCCCCC1C(=O)OC (centres undefined)	-7%	0.61
CCCCCOCC(=O)N1CCN(c2nc(C)n[nH]2)CC1	6%	-0.8
O=C(NC1CC(C(F)(F)F)CC(C(F)(F)F)C1)c1cccn2c(=O)[nH]nc12 (centres undefined)	-8%	1.34
c1ccc(-c2cc([C@@H]3NCCc4[nH]cnc43)on2)cc1	-4%	0.56
COc1ccc(C(=O)N(Cc2c(-c3cccc(C)c3)noc2N2CCOCC2)C(C)C)cc1	3%	-0.29
CCOc1ccc(NC(=O)CCn2c(=O)cc(C(F)(F)F)c3cn(C)nc32)cc1	31%	-3.55
O=C(Nc1ccc(C2(c3ccc(NC(=O)c4ccc(F)cc4)cc3)c3ccccc3C(=O)c3ccccc32)cc1)c1ccc(F)cc1	77%	-2.85
O=C(O)[C@@H]1CCCN1C(=O)CCCc1ccc(F)c(F)c1	0%	-0.02
CN(CC(=O)Nc1nc(-c2ccc(F)c(Cl)c2)cs1)C(=O)OC(C)(C)C	-17%	1.61
COc1ccccc1C1CN(C(=O)C(C)C)CC1C(=O)NCc1ccc(F)cc1 (centres undefined)	-9%	1.28
Cc1c(NC(=O)c2ccc([C@H](C)N3CCCCC3)o2)cccc1-c1nncn1C	11%	-1.58
Cc1ccc(CN(C)Cc2ccc(C)s2)s1	30%	-3.35
CC(NC(=O)N1CC2CCC1C2)c1ccc(-c2cccnc2)cc1 (centres undefined)	-15%	2.1
Cc1nc(CN2C[C@@H](C)N(Cc3csc(C)n3)[C@@H](C)C2)cs1	-8%	0.91
CC(C)C(=O)Nc1cc(C2CC2)nn1[C@H]1CCS(=O)(=O)C1	-10%	1.41
O=C(c1cnc[nH]1)N1CCN(Cc2ccoc2)C[C@H](O)C1	-8%	1.05
CN(C)CCN(CC(=O)O)Cc1ccc2ccn(C)c2c1	-18%	1.61
COCCOCC(=O)Nc1cc2sc(C)nc2cc1Cl	2%	-0.21
Cc1ccc(Cn2c(C(=O)NC3CC4CCC3C4)cc3ccsc32)cc1 (centres undefined)	7%	-0.78
CS(=O)(=O)N1C[C@H]2CC[C@@H](C1)N(C(=O)COc1ccc3c(c1)OCO3)C2	-3%	0.37

Compound	% Inhibition	Z score
COC[C@H]1[C@H](Nc2ncc(Cl)cn2)[C@H]2CCO[C@H]21	-13%	2.11
COc1cccc(C2=NN(C(=O)CN(CCN3CCOCC3)C(=O)C(C)C)[C@H](c3ccccc3)C2)c1	-5%	0.41
CCOC(=O)N1CCC(NC(=O)c2nnn(-c3nc(-c4ccccc4)cs3)c2C)CC1	-29%	5.59
CC(C)(C)OC(=O)N1CCN(c2nnc(NC(=O)CC3CCCC3)[nH]2)CC1	0%	0.02
CC1(C)CCc2c(nc3ccccc3c2O)O1	0%	0.05
CC[C@H]1C(=O)NCCCN1C(=O)Cn1cc(C2CC2)cn1	5%	-0.99
CC(=O)N[C@H]1CN(Cc2ccc(F)cc2Cl)C[C@@H]1c1ccc(C)cc1	-6%	1.2
Cn1nc(CNC(=O)[C@H]2CCc3nnnn3CC2)cc1C(F)(F)F	10%	-1.38
COC(=O)N1CCC[C@@]2(CCC(=O)N(CCc3ccccc3)C2)C1	-7%	1.5
CCC[C@H]1CCCN1C(=O)c1cccc(S(=O)(=O)NCc2ccncn2)c1	4%	-0.76
CC(C)C1=NO[C@H](C(=O)NCCc2ccncc2)C1	-18%	2.34
O=C(NCCNC(=O)c1ccccc1Cl)c1cc2ccccc2cc1O	-16%	2.25
O=C(COc1ccccc1)Nc1ccc(S(=O)(=O)N(Cc2ccccc2)c2ccccc2)cc1	14%	-1.68
NS(=O)(=O)c1ccc(-c2ccncc2)c(F)c1	-1%	0.11
O=C(Nc1ccnn1Cc1ccc(Cl)cc1)C1=NN(c2ccccc2)C(=O)CC1	-2%	0.39
CC(C)c1cccc(C(=O)N2C[C@@H](C)N(C)[C@@H](C)C2)n1	6%	-0.85
O=C(Nc1ccccc1Cc1ccccc1)c1ccc2ccccc2n1	-1%	0.14
Nc1nc2scc(-c3ccc4c(c3)CC(=O)N4)n2n1	-5%	0.58
O=C1CCC2(CCN(C/C=C/c3ccccc3)CC2)CN1CCc1c[nH]cn1	-6%	1.12
O=C([C@H](O)c1ccc2ccccc2c1)N1C[C@H](CO)C[C@H](CO)C1	-20%	1.95
Cc1cc(OCCOc2cccc(S(C)(=O)=O)c2)nn1C	35%	-3.93
Cc1ccc(-n2nc(CN3CCOCC3)c(-c3ccccc3)c2N)cc1	-21%	2.45
COCC(=O)N(CC(=O)N1CCc2sccc2[C@@H]1COc1ccc(F)cc1)CC(C)C	-6%	0.94
O=C(Cn1cc(F)ccc1=O)Nc1ccnn1C1CCCC1	15%	-1.92
CO[C@H]1C[C@H](C(=O)Nc2cc(Cl)ccc2C(C)(C)C)N(S(C)(=O)=O)C1	-14%	1.8
Cc1nc(-c2nnn(-c3cccc(Cl)c3)c2C)sc1C(=O)NCC(C)C	-5%	0.92

Reference: ChEMBL document CHEMBL4888484, “Replenishing the malaria drug discovery pipeline: Screening and hit evaluation of the MMV Hit Generation Library 1 (HGL1) against asexual blood stage Plasmodium falciparum ,using a nano luciferase reporter read-out” (2022)
